Laboratory results from the supplement of paper PMC10126150.
Values marked as one replicate rest on one cluster of the flow cell; about a third of the high ones do not repeat.

System: ATP
Assay: switch fluorescence ratio, 500 uM ATP over buffer (Cy3 cluster intensity, sum of 5 cycles each) (fold (ratio)); higher = stronger signal-on switching upon ATP binding; sequences stand for … in TCGTCGGCAGCGTCAGATGTGTATAAGAGACAGTTTTTTTTTTTTTTTTTTTTTTTTT…TC
Details: aptamer strand: ATP DNA aptamer (quencher-CACCTGGGGGAGTATTGCGGAGGAAGG + anchor), 100 nM annealed; ATP concentration: 500 uM; one replicate
Summary of the method: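 The quencher-labelled ATP aptamer, at 100 nM, was annealed to Cy3-labelled switching-strand clusters on a modified Illumina MiSeq flow-cell. The clusters were imaged in selection buffer, then after 15 min with 500 uM ATP at 22 °C, and this buffer/ATP cycle ran five times with NaOH stripping and re-annealing between runs. Per-cluster fluorescence ratios, summed target-cycle over summed buffer-cycle Cy3 intensity, were averaged per switch-domain sequence. Clusters outside 100-1000 RFU were excluded.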
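Note: ATP exposure 15 min at 22 °C before imaging.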

| Sequence | switch fluorescence ratio |
| --- | --- |
| GACTTAGAAA | 0.969 |
| TTTTGCAAT | 6.53 |
| TTACCGTTTG | 1.02 |
| ATAGGTTGCA | 0.97 |
| GGTTGTATCA | 0.978 |
| ATTACACGTA | 1.17 |
| GGGCCAACAG | 0.956 |
| TTAAATTTTC | 0.965 |
| TGGAATCG | 0.993 |
| GCCGTAATAG | 4.09 |
| TGGGAGCCGA | 1.1 |
| TTTAGCGAAG | 0.976 |
| CATTCAACAC | 1.06 |
| CACTTCTTGT | 0.988 |
| TAGCACCGGC | 1.07 |
| ACCTTAAAGG | 0.988 |
| ATGACGGCAC | 1.3 |
| ATTTACAGGA | 1.05 |
| CGTAATGGTC | 1.35 |
| AGTAAATGAG | 1.05 |
| CTCTGTCGAC | 1.19 |
| GGACCAAGGG | 0.956 |
| ACACGGCTCC | 1.04 |
| AACCGGAACA | 1.07 |
| CTAAATTAAC | 1.02 |
| TCCAAGCGGT | 1.39 |

| Sequence | switch fluorescence ratio |
| --- | --- |
| CCACGGATCT | 1 |
| AAAGGCTGCA | 0.932 |
| CACTTACAGG | 1.26 |
| GTCCGTAAAT | 2.89 |
| TTTAACCCTG | 1.01 |
| AAGGAAACAG | 1.01 |
| CGAGACACAT | 1.05 |
| GAAGGATGGC | 0.948 |
| AATTTTTGAA | 0.961 |
| GAGACATGTG | 1.11 |
| CCCTACGTGT | 1.14 |
| GATTCTGAGT | 0.985 |
| ATAGCATGGG | 0.993 |
| GGGGCCGCTG | 0.981 |
| GGCCATTGAC | 1.04 |
| ATACGTTGTG | 0.988 |
| ACCGCGCGAT | 1.26 |
| TCGCGGCATT | 1.24 |
| TACGGGTAGA | 1.01 |
| TGGTAAGCTT | 0.993 |
| ATCTGCTG | 1.02 |
| TTGGGCTGAT | 0.975 |
| TTCGGTTGAC | 1.44 |
| TCAGATGGTA | 0.979 |
| CTAGGGCACT | 1.02 |
| ATAAGCGACC | 1.16 |

| Sequence | switch fluorescence ratio |
| --- | --- |
| TCGAGAAGGC | 1.04 |
| TAATCTTGCA | 1.04 |
| GAGTCTCAG | 1.02 |
| CTCTGCTGGG | 1.49 |
| CGTGAGAACG | 0.965 |
| GGGTAGCGAG | 0.929 |
| CCCTCGCCTA | 1.16 |
| CTGGCTAACC | 0.992 |
| CACAAATCAC | 1.05 |
| CGCCGTGAA | 0.979 |
| GATTGCACAT | 1.04 |
| CATGGAATAA | 0.996 |
| GCACGCAGT | 1.01 |
| GGAAGGAAGG | 1.01 |
| AGCCGGTCGA | 1.01 |
| ATGCCTGGAC | 1.06 |
| ACCTCACTCG | 1.5 |
| ATAAGTTCAC | 1.03 |
| ATCTGGTAAG | 1 |
| CTAAGCCAAG | 0.991 |
| TTGATAGGA | 1 |
| ATTTTAGTAA | 0.984 |
| CAAGCTATA | 1.18 |
| CGCAACCAAA | 1.15 |
| CACTCGCCTT | 1.02 |
| TGATGAATGT | 0.99 |

| Sequence | switch fluorescence ratio |
| --- | --- |
| AGTTTAGGCA | 0.998 |
| GCAGGTATCG | 0.977 |
| CGTGCGGTCC | 1.02 |
| TTCTAGATAG | 0.976 |
| TTCGCAGACC | 1.1 |
| CTGTTGCGCC | 1.03 |
| TTCGTTACTA | 0.979 |
| CTTAATGGCG | 0.989 |
| CGTTTCTACG | 0.974 |
| CATTATAGCA | 1 |
| GAAGCCGGAG | 0.974 |
| CGCAGTCTTC | 1.08 |
| AACTTGTTGA | 1 |
| TCCATTTCAG | 0.998 |
| GGGCGCCGTC | 0.962 |
| TGGGGGCATG | 1.04 |
| ACAAACAGGG | 1.25 |
| TCCTTTGACA | 1.08 |
| GCATTACGGG | 1.36 |
| GTGGACCCGA | 0.992 |
| AACCCAATT | 1.05 |
| TATTACCTAT | 1.06 |
| TTCCTTGAAG | 1.02 |
| AAAGTCCACC | 1.02 |
| AGGTATAGGT | 0.951 |
| TGGTCTTCGA | 1.01 |

| Sequence | switch fluorescence ratio |
| --- | --- |
| CCAGTTAGTT | 1.06 |
| CTCGGCGCGG | 0.977 |
| GTTAATCCTG | 0.987 |
| ACAGGTCTTA | 1.02 |
| AGGGCTCTGG | 1.04 |
| GAAAGCTATT | 1 |
| ACCACAGGGC | 1.41 |
| GATGCTATTG | 1.03 |
| CAGGGCGCGC | 1.05 |
| TAGTGTGGTG | 0.925 |
| GTTATTGCCG | 0.984 |
| TCCGTTCCAT | 1.07 |
| CCTATAGGGT | 0.968 |
| CCTTATTGT | 1.01 |
| CAACTTATCC | 1.08 |
| AATCCCAAAG | 1.04 |
| TCTATGCAAG | 1.07 |
| TACTAATCCC | 1.04 |
| GAGCAAAATA | 1.03 |
| GCCAGGGAAC | 1.03 |
| TGTTGTTCTT | 0.979 |
| CATGATGGTT | 1.01 |
| GTACGCGGCT | 0.994 |
| TTCGCCGATA | 0.982 |
| AAGGGCAAAA | 1.01 |
| AAGTTTGTA | 0.956 |

| Sequence | switch fluorescence ratio |
| --- | --- |
| AAATCACTAC | 1.11 |
| TGTGCCCACG | 1.01 |
| TGAGGGGCTG | 0.984 |
| GGTGAAAGT | 1 |
| AGAGGATGAC | 1.04 |
| GCAGGAGCAG | 1.05 |
| TGAAGTTCGT | 0.997 |
| GATGTTTGAT | 0.972 |
| ATACCCCTGT | 1.08 |
| GCGTTTCACC | 1.01 |
| CTGATCGGAC | 1.15 |
| CCGTGGTGAA | 1.06 |
| GAACAATCG | 1.04 |
| AGACATTCTC | 1.07 |
| ATAGTATGGC | 1.02 |
| TGTGGAAAAG | 0.995 |
| ATATTCATCG | 1.05 |
| AGAAAAAACC | 1.08 |
| GCACCCCCAA | 1.54 |
| AACCCTCTCG | 1.11 |
| TGTTACACTT | 1.04 |
| AACTGCAACT | 1.16 |
| ATATGCACGC | 1.06 |
| TTAGTTTCAT | 1.08 |
| CTTTCGCTG | 1.27 |
| CGGATGGAGC | 1 |

| Sequence | switch fluorescence ratio |
| --- | --- |
| TTGTACGCGC | 1.11 |
| GCGTGCACCT | 1.01 |
| CCTTGGAATG | 0.993 |
| ATACAGGGGT | 1.15 |
| TTACTCGCAC | 2.17 |
| AGTTCCTGGT | 0.994 |
| TCCACGGTGT | 2.1 |
| AGCGTTGCAC | 0.99 |
| GAAATTCATG | 1.06 |
| AAGGCTCATC | 1.01 |
| AGCGCATAT | 1.36 |
| GAAGTAAATA | 1.23 |
| TCGTCACTTT | 0.994 |
| TTTGCCGACA | 0.988 |
| CTCTTGGTTA | 1.02 |
| TATATAAAT | 1.01 |
| GATGTTGCAA | 1.03 |
| TTAACGCGAA | 1.15 |
| GCCCTACTGG | 1.05 |
| CAGAAGGCGG | 1 |
| TCAAGTCCGT | 0.956 |
| CCACGGATCA | 0.971 |
| TACCTGGATG | 0.996 |
| TGCTTCCATT | 1.02 |
| TTGGCAGTC | 1.34 |
| ATGGGGAGCC | 1.01 |

| Sequence | switch fluorescence ratio |
| --- | --- |
| TCTCGACGGT | 1.06 |
| TGATCGGCAT | 1.01 |
| ATATATACGC | 1.04 |
| GCAACGACC | 1.99 |
| ATGGTTAACG | 0.992 |
| ACGTGCGTAT | 1.02 |
| TTCATTCCGC | 2.73 |
| ACTCTCGCGG | 1.57 |
| GTAGGAGGTT | 0.954 |
| TATGACGGG | 1.01 |
| ACCCTATCCA | 1.05 |
| AGTAGGAAAA | 0.993 |
| AATGAGAAC | 1.03 |
| ATTTCTCAAG | 0.974 |
| ATCCTCCAA | 1.32 |
| TGGTAGGAAC | 1.02 |
| CTTAAACTA | 0.973 |
| TCCATTTACG | 1.06 |
| CGTTGTTCTT | 0.987 |
